Reference: the antibiotic and cytotoxicity screens of Wong et al. (2023)
The list shows a part of the results.

tested on: S. aureus RN4220; assay: growth inhibition call (relative growth <= 0.2); conditions: 50 µM

Growth inhibition call, inactive:
CCN(CC)CCOC(=O)C(c1ccccc1)c1ccccc1.Cl
CN(C)CCCNC(=O)C[C@@H]1CC[C@@H]2[C@H](COC[C@H](O)CN2S(=O)(=O)c2ccc(F)cc2)O1
O=C(c1cccs1)N1c2ccccc2Sc2ccccc21
C[C@H]1CCCCO[C@@H](CN(C)Cc2ccc3c(c2)OCO3)[C@@H](C)CN([C@@H](C)CO)C(=O)c2cc(NC(=O)Cc3ccccc3)ccc2O1
COc1ccc(NC(=O)N(C)C[C@H]2Oc3ccc(NC(=O)CCCN(C)C)cc3C(=O)N([C@@H](C)CO)C[C@H]2C)cc1
COc1ccc(NC(=O)Nc2ccc3c(c2)C(=O)N([C@@H](C)CO)C[C@H](C)[C@@H](CN(C)Cc2ccc(Oc4ccccc4)cc2)O3)cc1
C[C@@H]1CN([C@H](C)CO)C(=O)c2cccc(NC(=O)Nc3ccccc3)c2O[C@H]1CN(C)C(=O)Nc1cccc2ccccc12
C[C@]12C[C@@H](O)[C@@H]3C[C@@]1(O[C@@H]1O[C@H](CO)[C@@H](O)[C@H](O)[C@H]1O)[C@@]3(COC(=O)c1ccccc1)C(=O)O2
COc1ccc(S(=O)(=O)Nc2ccc3c(c2)C(=O)N([C@H](C)CO)C[C@H](C)[C@@H](CN(C)S(=O)(=O)c2ccccc2)O3)cc1
C[C@@H]1CN([C@H](C)CO)C(=O)c2cc(NS(=O)(=O)c3ccc(Cl)cc3)ccc2O[C@@H](C)CCCCO[C@@H]1CN(C)C(=O)c1ccccc1
CO[C@@H]1CN(C)C(=O)c2ccc(NC(=O)C3CCOCC3)cc2OC[C@@H](C)N(Cc2cccnc2)C[C@H]1C
CC(C)NC(=O)Nc1ccc2c(c1)C(=O)N(C)[C@@H]1CC[C@H](CC(=O)NCc3ccc(F)cc3)O[C@@H]1CO2
C[C@H](CO)N1C[C@H](C)[C@@H](CN(C)Cc2ccc3c(c2)OCO3)Oc2c(NS(=O)(=O)c3cn(C)cn3)cccc2C1=O
COCC#Cc1cnc2c(c1)C(=O)N([C@H](C)CO)C[C@H](C)[C@H](CN(C)C(=O)Nc1ccc(OC)cc1)O2
O=C(NCc1cccc(F)c1)[C@H]1[C@H](CO)[C@H]2Cn3c(cccc3=O)[C@@H]1N2C(=O)c1cnccn1
C[C@H](CO)N1C[C@H](C)[C@H](CN(C)C(=O)Nc2ccccc2)Oc2c(NC(=O)CCCCCC(=O)Nc3ccccc3N)cccc2C1=O
Clc1ccc([C@@H](c2ccccc2Cl)C(Cl)Cl)cc1
O=c1c(O[C@@H]2O[C@H](CO)[C@@H](O)[C@H](O)[C@H]2O)c(-c2ccc(O)cc2)oc2cc(O)cc(O)c12
C[C@H]1CN([C@@H](C)CO)C(=O)c2cccc(NC(=O)c3nc4ccccc4s3)c2O[C@@H]1CN(C)C(=O)Nc1ccc(F)cc1
C[C@H](CO)N1C[C@H](C)[C@H](CN(C)C(=O)C2CCOCC2)Oc2ncc(C#CC3(O)CCCC3)cc2C1=O
Cc1noc(C)c1NC(=O)N(C)C[C@H]1OCCCC[C@H](C)Oc2ccc(NS(=O)(=O)c3ccc(Cl)cc3)cc2C(=O)N([C@@H](C)CO)C[C@@H]1C
Cc1ccc(S(=O)(=O)N(C)C[C@H]2OCCCC[C@@H](C)Oc3ccc(NS(C)(=O)=O)cc3C(=O)N([C@H](C)CO)C[C@H]2C)cc1
C[C@H]1CN([C@@H](C)CO)C(=O)c2cc(NC(=O)Nc3ccc(C(F)(F)F)cc3)ccc2O[C@@H]1CN(C)S(=O)(=O)c1ccc(Cl)cc1
COc1ccc(S(=O)(=O)Nc2ccc3c(c2)C(=O)N([C@@H](C)CO)C[C@H](C)[C@H](CN(C)C(=O)c2ccccc2)OCCCC[C@H](C)O3)cc1
Cc1noc(C)c1NC(=O)N(C)C[C@@H]1OCCCC[C@@H](C)Oc2ccc(NS(=O)(=O)c3ccccc3)cc2C(=O)N([C@@H](C)CO)C[C@H]1C
C[C@@H]1CN([C@@H](C)CO)S(=O)(=O)c2ccc(C#CC3(O)CCCC3)cc2O[C@H]1CN(C)C(=O)c1ccccc1
O=C(C[C@@H]1CC[C@H]2[C@@H](COC[C@H](O)CN2S(=O)(=O)c2cccc(Cl)c2)O1)NCc1ccncn1
CC(C(=O)O)c1ccc2c(c1)[nH]c1ccc(Cl)cc12 (centres undefined)
COc1ccc(S(=O)(=O)N(C)C[C@H]2Oc3ccc(NS(=O)(=O)c4ccc(C)cc4)cc3CC(=O)N([C@H](C)CO)C[C@@H]2C)cc1
